About 4,300 (8.3%) of roughly 52,000 compounds were called active. Cut-off read from the data, not from the text of the source: active = survival mostly below about 52% (no sharp cut-off); inactive = mostly above about 56%. The list shows a part of the results.
System: DeltatarO mutant
Test: S. aureus survival, RN4220 and DeltatarO strains – OD600, teichoic acid synthesis inhibitors, primary screen (AID 463173)
Conditions: S. aureus RN4220 wild type/DeltatarO growth, OD600, 18 h, active compounds read low, screened at 18.75 µg/mL (by protocol)

Row | Compound | survival
1 | COc1ccc(-n2ccnc(NCc3ccc(C)cc3)c2=O)cc1OC | inactive: 94%
2 | Cc1cccc(N2CCN(c3nc4ccc(C)cc4n4cnnc34)CC2C)c1 (centres undefined) | inactive: 76%
3 | CC1(C)Cc2ccccc2/C(=C/C(=O)N2CCCCCC2)N1 | inactive: 81%
4 | CCn1cc(C(=O)NCCc2ccc(Cl)cc2)c(=O)c2cc(S(=O)(=O)N3CCC(C)CC3)ccc21 | inactive: 105%
5 | O=C(NC1CCCCC1)c1ccc2c(c1)N(Cc1ccc(Cl)cc1)C(=O)c1ccccc1S2=O (centres undefined) | inactive: 87%
6 | O=C(c1ccc(F)cc1)n1nc(-c2ccccc2)nc1NCc1ccco1 | active: 18%
7 | COc1ccc(N(CC(=O)N2CCN(c3ccccc3F)CC2)S(=O)(=O)c2c(C)n[nH]c2C)cc1 | inactive: 119%
8 | Cc1cccc(NC(=O)CCNS(=O)(=O)c2cccc3nsnc23)c1C | inactive: 50%
9 | CCOc1ccc(N2C(=O)CC(N(CCc3ccccc3)C(C)=O)C2=O)cc1 (centres undefined) | inactive: 94%
10 | CCN1CCN(CCCNC(=O)c2ccc3nc(Cc4ccccc4)oc3c2)CC1 | inactive: 105%
11 | COc1ccc(N2CCN(C(=O)c3cc(S(=O)(=O)N4CCC(C)CC4)cn3C)CC2)cc1 | inactive: 75%
12 | O=C(CO)N/N=C\c1c(F)cccc1Cl | inactive: 51%
13 | O=C(CCSc1nc(-c2ccco2)cc(C(F)(F)F)n1)N1CCCC1 | inactive: 97%
14 | COc1cccc(CNC(=O)CCc2c(C)c3cc4c(C)coc4c(C)c3oc2=O)c1 | inactive: 55%
15 | CCc1ccccc1NC(=O)CCS(=O)(=O)c1cccc2nonc12 | inactive: 74%
16 | COc1ccc(OCC(=O)N2CCN(C(=O)c3cccc(OC)c3)CC2)cc1 | inactive: 72%
17 | COc1ccccc1NC(=O)c1sc2nc(C)c(C(=O)Nc3ccc(C)cc3C)c(-c3ccc(C)o3)c2c1N | inactive: 69%
18 | CCn1c(C)c(C)c2cc(C(=O)NCc3cccc(C)c3)ccc21 | inactive: 95%
19 | Cc1cccc(C(=O)Nc2ccc(C(=O)OCc3cc(=O)n4nc(CC(C)C)sc4n3)cc2)c1 | inactive: 99%
20 | COc1ccc(NC(=O)/C=C\C(=O)N(c2ccc(C(C)C)cc2)C(C(=O)NCc2ccco2)c2ccc(F)cc2)cc1 (centres undefined) | inactive: 83%
21 | O=C(c1ccccc1)N(Cc1ccco1)Cc1cccs1 | active: 41%
22 | COc1cccc(N2CCN(C(=O)c3ccc(NC(=O)c4nsc5ccccc45)cc3)CC2)c1 | inactive: 64%
23 | COc1ccc(NC(=O)c2ccco2)cc1NC(=O)COc1ccc(Cl)cc1C | inactive: 57%
24 | Cc1ccc(C(=O)NCc2ccc(F)cc2)cc1NC(=O)c1nsc2ccccc12 | inactive: 95%

Source: PubChem BioAssay AID463173 (ICCB-Longwood Screening Facility, Harvard Medical School, 2010)
